For this data set, the system named is ATP. Kind of data set: switch fluorescence ratio, 500 uM ATP over buffer (Cy3 cluster intensity, sum of 5 cycles each) (fold (ratio)); higher = stronger signal-on switching upon ATP binding; sequences stand for … in TCGTCGGCAGCGTCAGATGTGTATAAGAGACAGTTTTTTTTTTTTTTTTTTTTTTTTT…TC. The following applies: aptamer strand: ATP DNA aptamer (quencher-CACCTGGGGGAGTATTGCGGAGGAAGG + anchor), 100 nM annealed; ATP concentration: 500 uM; one replicate. The method, boiled down:
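Cy3-labelled switching-strand clusters on a modified Illumina MiSeq flow-cell were annealed to 100 nM quencher-labelled ATP aptamer and imaged first in selection buffer, then after 15 min with 500 uM ATP at 22 °C. NaOH stripping and re-annealing separated each of five buffer/ATP cycles, and clusters outside 100-1000 RFU were excluded. The fluorescence ratio sums target-cycle Cy3 intensity over buffer-cycle Cy3 intensity per cluster and averages it per switch-domain sequence.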

Sequences with one replicate were seen in a single cluster, so their values are uncertain.
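Note: ATP exposure 15 min at 22 °C before imaging.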

Consider TCGTGGCTCA, for which the switch fluorescence ratio amounted to 1.01.

Consider ATAACATCAG, for which the switch fluorescence ratio was 0.989. With ATGGTCGTTC, the switch fluorescence ratio was 0.978. For CGAACTTACA, the switch fluorescence ratio turned out to be 1.18. The value for TGACCTACGC was 1.59. The value for CCTCGACCAC was 2.76; that for TGTTTATCGT was 1.08.

For the sequence GGAATCAGAG, the switch fluorescence ratio was 0.999. As to TTAGCTGTCT, the switch fluorescence ratio came out at 1.01. The value for GATTATCAGT was 1.03; that for ACGATTTAC was 1.67. As for CTCTGAAGGG, the switch fluorescence ratio was found to be 1.04. The value for TATTCGCGA was 1.16; that for TATAATGTCC was 0.956. The value for AATGCTTGGA was 1.02; that for CAAGGTATGA was 0.956; that for AACGTCTCCG was 1.1. The value for TAATGTTTTC was 1.03; that for AATGGACCTG was 0.999; that for CCCCAAATTG was 1.05. Take GCTCTTACTC: the switch fluorescence ratio stood at 1.34. On to ACTTTTAGGG, for which the switch fluorescence ratio was 1.

For the sequence TGGCAGCCGA, the switch fluorescence ratio is 1.01.

As to AACACATGGT, the switch fluorescence ratio came to 1.01. The value for ATGGTTTGTT was 1.03; that for GGCATCCTG was 0.967. With ATGAACAGTT, the switch fluorescence ratio turned out to be 1.01.

Regarding ATTAATCAGG, the switch fluorescence ratio came out at 1.03. Turning to TCTGTTTCGG, the switch fluorescence ratio was 0.95. The value for AGGCGAGGTG was 0.993; that for TCGATCGGTT was 0.953; that for CTGATCAAA was 1.01. ACAATGGCTC: the switch fluorescence ratio came out at 1.05. The value for GCGAAAGGTC was 1. The value for ATAGATCGTG was 0.974; that for CTCGCAGCGT was 1.16. The value for GGAATGGATC was 0.983. Regarding GCCTGTAGGC, the switch fluorescence ratio worked out at 1. The value for ACTACGTCG was 1.06; that for AGACATGTTA was 1.01. As for AATCGTCA, the switch fluorescence ratio is 1.05. The value for CCCAACCGAG was 1.32. In the case of CCGTAGATCT, the switch fluorescence ratio is 1.17. The value for TCGACGTGAT was 3.73.

As to TGGTTCTTGA, the switch fluorescence ratio was 0.888. For the sequence CAAGACACCT, the switch fluorescence ratio worked out at 1.29. The value for TGTGGTAGAT was 1.01; that for AGCAAAAAG was 1.09; that for GCTTCCCATA was 1.03. Consider TCGTGGGAAT, for which the switch fluorescence ratio worked out at 0.996. For the sequence GTCAATTCGG, the switch fluorescence ratio worked out at 0.978. The value for CGGCATGGGA was 1.05; that for CCGTTATCGA was 1.22; that for AGACTGGGAC was 1.01.

As to ATTGTTATGA, the switch fluorescence ratio turned out to be 1.05.

As to TGCCACATAT, the switch fluorescence ratio came out at 1.03. The value for CTATCGGGCA was 1.02; that for GATGTGTGCT was 0.956; that for GTCAACGCTG was 1. For the sequence CGGCGACAGC, the switch fluorescence ratio came out at 0.936. The value for TCGCTTTTAA was 1.08.

Turning to TAATTAATAA, the switch fluorescence ratio is 1.05. Regarding CGGCTGGTGT, the switch fluorescence ratio was found to be 1.06. The value for GGTAGGAT was 0.966; that for TGCCCTGGGG was 1.1; that for AAAGCCAACT was 0.958.

With TACATCTAAG, the switch fluorescence ratio is 0.994.

The values above are taken from the supplement of paper PMC10126150.
